# Experimental data from PubChem BioAssay AID485344 (National Center for Advancing Translational Sciences (NCATS), 2010).
# The whole screen tested about 340,000 compounds, of which about 6,900 (2%) were called active. Cut-off read from the data, not from the text of the source: active = inhibition above about 30%; inactive = below that, where a call was filed. The list shows a part of the results, in another mix than the full data. The source gives no active or inactive call for entries shown without one.
# Biological target: D(2) dopamine receptor (Homo sapiens) (UniProt P14416)
# Chain of UniProt P14416 (P14416 whole entry, looked up): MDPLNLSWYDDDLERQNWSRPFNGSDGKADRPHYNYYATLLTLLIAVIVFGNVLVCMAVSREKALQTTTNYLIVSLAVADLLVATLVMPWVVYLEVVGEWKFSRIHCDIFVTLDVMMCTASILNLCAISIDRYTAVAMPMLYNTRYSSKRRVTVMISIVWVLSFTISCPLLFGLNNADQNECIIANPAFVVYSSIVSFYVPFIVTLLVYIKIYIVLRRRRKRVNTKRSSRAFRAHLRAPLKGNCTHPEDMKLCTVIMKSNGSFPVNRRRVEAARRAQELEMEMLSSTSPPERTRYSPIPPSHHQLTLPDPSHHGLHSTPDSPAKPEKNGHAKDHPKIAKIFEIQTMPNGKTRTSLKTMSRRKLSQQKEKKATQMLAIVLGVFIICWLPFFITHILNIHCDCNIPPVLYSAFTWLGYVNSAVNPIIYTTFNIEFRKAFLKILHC
# Experiment: HTS Assay for Allosteric Antagonists of the Human D2 Dopamine Receptor: Primary Screen for Antagonists; note: 0% is about no effect
# Settings: HEK293 TREx D2 cells, calcium flux, dopamine EC80; at 10 µM; stronger effect = higher value
# Method in brief: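 Calcium flux kinetic readout in an inducible HEK293 TREx D2 line plated overnight at 30 C. After 180 s compound exposure, an EC80 dopamine challenge follows with another 180 s kinetic read to detect antagonism.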
row,Compound,inhibition
1,Cc1cccc(NC(=O)Cn2nnc(C(=O)Nc3ccccc3Br)c2N)c1C,-6.99%
2,Cn1cc(C(=O)NCc2ccccc2)c(=O)c2cc(S(=O)(=O)N3CCOCC3)ccc21,1.64%
3,O=C(NC1CC(=O)N(c2ccc(Cl)cc2)C1)c1ccc2c(c1)OCO2 (centres undefined),-20.1%
4,CCOc1ccccc1NC(=O)c1nc2nc(C)cc(C(F)F)n2n1,2.41%
5,COc1cccc(N2CCN(C(=O)C3CCN(S(=O)(=O)c4c(C)noc4C)CC3)CC2)c1,-4.98%
6,Cc1ccc(S(=O)(=O)N(CCc2ccccc2)CC(=O)Nc2cc(C)ccc2C)cc1,19.7%
7,Cc1cccc(N2CCN(Cc3nc(-c4ccccc4Cl)oc3C)CC2)n1,active: 39.5%
8,CN1CCC(=O)N(CCSc2ccc(Br)cc2)CC1,active: 53.5%
9,CN(C)S(=O)(=O)c1ccc(C(=O)NC2CC(=O)N(c3ccc4c(c3)OCCO4)C2)cc1 (centres undefined),-15%
10,CCOC(=O)c1cc(-c2ccc(C)cc2)n(CCC(=O)Nc2ccc(C(C)C)cc2)c1C,1.08%
11,COc1cc(C2C(C(=O)Nc3ccc(C)cc3C)=C(C)Nc3nc4ccccc4n32)cc(OC)c1OC (centres undefined),-0.76%
12,Cc1cccc(NC(=O)CS(=O)(=O)c2nc(-c3ccccc3)cn2-c2cccc(Cl)c2)c1C,14.9%
13,CC(=O)N1CCCc2cc(S(=O)(=O)N(C)CC(=O)Nc3cccc(C)c3C)ccc21,-4.45%
14,CCOc1ccc(CCNC(=O)c2cn(CC)c3ccc(S(=O)(=O)N4CCCCCC4)cc3c2=O)cc1OCC,1.83%
15,O=C1c2[nH]nc(-c3ccccc3O)c2C(c2cccc(Cl)c2)N1Cc1cccnc1 (centres undefined),19.6%
16,CCOC(=O)c1sc(NC(=O)CSc2n[nH]c(-c3ccccc3)n2)c(C#N)c1C,active: 38.7%
17,Cc1cccc(CNC(=O)Cn2ccc3cc(S(=O)(=O)N4CCCC4)ccc32)c1,5.69%
18,Cc1cccc2c1N(CCOc1ccccc1Cl)C(=O)C2=O,active: 30.4%
19,CCCCN1CC(c2nc3ccccc3n2CCCCOc2ccc(C)c(C)c2)CC1=O (centres undefined),13.7%
20,COc1ccc(OC)c(NS(=O)(=O)c2ccc3[nH]c4c(c3c2)CCCCC4)c1,5.63%
21,Cc1ccc(F)c(NC(=O)Nc2ccc3snnc3c2)c1,-11.1%
22,Cc1[nH]c2ccc(C(=O)NCCCN3CCCCCC3)cc2c1C,active: 61.7%
23,CNC(=O)C1CCC(Cn2c(=O)c3sccc3n(CC(=O)Nc3ccc(C)c(F)c3)c2=O)CC1 (centres undefined),-3.95%
24,COc1cc(NC(=O)CN2C(=O)CN(C)C(=O)c3ccccc32)cc(OC)c1OC,-19%

row,Compound,inhibition
1,COc1ccc(C)cc1NC(=O)C1CCCN(S(=O)(=O)c2ccc3[nH]c(=O)ccc3c2)C1 (centres undefined),8.5%
2,O=C(C1CCCN(S(=O)(=O)c2cccc3cccnc23)C1)N1CCN(c2ccccc2F)CC1 (centres undefined),active: 37%
3,CCn1c2ccccc2c2cc(NC(=O)COc3cccc(C)c3)ccc21,1.42%
4,CCOc1ccc(CCNC(=O)Cn2ncc3c(=O)oc4ccc(C)cc4c32)cc1,0.955%
5,CCOC(=O)c1c(C)[nH]c(C)c1S(=O)(=O)N1CCC(C(=O)Nc2ccc(C)cn2)CC1,4.24%
6,CCOc1cc2[nH]c(=O)n(CCCC(=O)N3CCN(c4ccc(OC)cc4)CC3)c(=O)c2cc1OCC,-26.1%
7,O=C(c1ccc(CSc2nc3ccncc3n2Cc2cccc(F)c2)cc1)N1CCCCC1,4.85%
8,CCOc1ccc(N(CC(=O)NCc2ccc(C)cc2)S(=O)(=O)c2c(C)noc2C)cc1,0.798%
9,CCOC(=O)c1c(C)oc2ccc(N(C(=O)c3ccncc3)S(=O)(=O)c3ccc(Br)cc3)cc12,15.7%
10,CC1=C(c2ccc(C(C)C)cc2)S(=O)(=O)NC1=NCc1ccccc1Br,15.3%
11,Cc1cccc(NC(=O)Cn2c(=O)nc(-c3ccccc3)c3ccccc32)c1C,-1.53%
12,CCC(=O)N1c2ccccc2CC1C(=O)NCCc1ccc(C)cc1 (centres undefined),-12.3%
13,CCN(CC)CCNC(=O)c1nn(C)c2c1CS(=O)(=O)c1ccccc1-2,-7.74%
14,CCOC(=O)c1ccc(N2C(=O)c3n[nH]c(-c4ccco4)c3C2c2ccc(O)c(OC)c2)cc1 (centres undefined),22.8%
15,Cc1ccc(CNC(=O)c2nn(C)c3c2CS(=O)(=O)c2ccccc2-3)cc1,-10.5%
16,Cc1cc(NC2CCCCC2)nc2ccccc12,active: 44%
17,Cc1cc(NC(=O)CCC(=O)N(C2CC2)C2(C(=O)NC3CCCC3)CCC(C)CC2)no1 (centres undefined),active: 37.2%
18,O=C(CSCc1nc2cccnc2n1C1CCCCC1)NCc1cccc(Cl)c1,4.61%
19,COc1ccc(-n2nc(C(=O)N3CCN(c4cccc(C)c4C)CC3)c3c4ccccc4n(C)c3c2=O)cc1,-14.2%
20,CNC(=O)COc1ccc(NC(=O)CCn2nc(-c3ccc(C)cc3)c3ccccc3c2=O)cc1,-11.5%
21,O=C(Nc1nc2nc(-c3ccccc3)cc(=O)n2[nH]1)c1ccc(Cl)cc1,12.6%
22,CCC(C)OC(=O)/C(C#N)=C\c1ccc(-c2ccccc2Cl)o1 (centres undefined),-0.119%
23,COc1cc(OC)c(NS(=O)(=O)c2cc(-c3cnc(C)o3)ccc2OC)cc1Cl,-17.7%
24,Cc1ccc(NC(=O)CN2C(=O)CCn3nc(-c4cccn4C)cc32)cc1,-2.05%

row,Compound,inhibition
1,CCOc1ccc(OCC)c(NC(=O)CCC(=O)N2CCOc3ccccc32)c1,5.04%
2,CCCC1=Nc2cc(C(=O)NCCc3ccc(OC)cc3OC)ccc2Sc2ccccc21,-6.44%
3,CSc1ncc(C(=O)Nc2ccc(F)cc2F)c(-c2ccccc2)n1,-2.2%
4,Cc1ccc2oc(-c3cc(NC(=O)c4ccco4)ccc3Cl)nc2c1,-3.96%
5,Cc1ccc(-c2nc3nc(C)cc(Nc4ccccc4O)n3n2)cc1,-9.97%
6,CCOC(=O)c1ccccc1NC(=O)N1CCC(N2CCN(Cc3ccccc3)C(=O)C2=O)CC1,22.1%
7,O=C(Cn1c(=O)n(CC2CCCO2)c(=O)c2ccccc21)Nc1cccc(Cl)c1 (centres undefined),-21%
8,COc1cc(OC)c(Nc2nc3ccccc3nc2-n2nc(C)cc2C)cc1Cl,-8.88%
9,COC(=O)c1scc(-c2ccc(C)cc2)c1S(=O)(=O)N1CCN(c2ccc(OC)cc2)CC1,7%
10,COc1ccc(N2CC(NC(=O)CCc3ccccc3)CC2=O)cc1OC (centres undefined),17.3%
11,Cc1cc(C)c(NC(=O)c2cc(S(=O)(=O)N3CCN(c4ccccc4F)CC3)ccc2F)c(C)c1,5.07%
12,Cc1ccc2oc(=O)n(CCCOc3ccc(Cl)cc3)c2c1,-12.6%
13,CCOC(=O)N1CCc2c(sc3c2c(=O)n(-c2ccc(CC)cc2)c(=O)n3CC(=O)Nc2ccc(C)cc2)C1,-19.1%
14,CCNc1ccc(-c2nc(-c3ccco3)no2)cc1[N+](=O)[O-],-7.55%
15,Cc1ccccc1NC(=O)c1c(NC(=O)Cc2ccccc2)sc2c1CCC2,15.8%
16,CN(C)S(=O)(=O)n1cc(/C=C(\NC(=O)c2ccccc2)C(=O)NCCCn2ccnc2)c2ccccc21,0.6%
17,CCOc1ccc(CNC(=O)c2ccc3c(c2)c(C)c(C)n3Cc2ccc(Cl)cc2)cc1,4.16%
18,O=[N+]([O-])c1cc(-n2cnnn2)ccc1N1CCC(Cc2ccccc2)CC1,active: 31.9%
19,CCc1ccc(CNC(=O)c2cc(-c3ccc(Cl)s3)nc3ccccc23)cc1,-24%
20,Cc1ccc(N(C)S(=O)(=O)c2nnc(NC(=O)C3CCCCC3)s2)cc1,-26.3%
21,CCOc1ccc(NC(=O)Cn2c(=O)oc3cc(S(=O)(=O)N4CCCCCC4)ccc32)cc1,13.4%
22,Cc1ccc(CCNC(=O)c2ccc(CSCc3ccccc3Cl)o2)cc1,4.19%
23,CC(=O)OCCNc1nc(-c2ccccc2)nc2ccccc12,active: 38%
24,COc1ccc(-n2c3c(cc(-c4nc(-c5ccc(Cl)cc5)cs4)c2=O)C(=O)CC(C)(C)C3)cc1,-7.87%

row,Compound,inhibition
1,Cc1ccc2scc(N3CCN(c4ccc(F)cc4)CC3)c(=O)c2c1,2.6%
2,O=C1c2[nH]nc(-c3ccc(Br)cc3)c2C(c2cccc(O)c2)N1c1ccc(Cl)cc1 (centres undefined),8.1%
3,COc1ccc(NC(=O)c2sc3nc4n(c(=O)c3c2C)CCC4)cc1Cl,10.9%
4,COc1ccc(Cl)cc1NC(=O)CN(c1cccc(C)c1C)S(=O)(=O)c1ccccc1,1.42%
5,CCOc1ccc(C(c2c(O)cc(C)n(CCOC)c2=O)N2CCC(C)CC2)cc1 (centres undefined),-5.48%
6,O=C(NCc1ccc(Cl)cc1)c1cnc2sc(N3CCCC3)nn2c1=O,-2.4%
7,COc1ccc(C2c3c(n(C)c4ccccc34)C(=O)N2CC(=O)Nc2ccccc2F)cc1 (centres undefined),4.16%
8,COc1ccc(CCNC(=O)c2ccc3c(c2)N(Cc2cccc(Cl)c2)C(=O)CS3)cc1OC,-13%
9,COc1ccc2c(c1)sc1ncc(C(=O)NCc3cccc(Cl)c3)c(=O)n12,2.22%
10,COc1cc(C)ccc1OCCn1c(-c2ccc(Cl)cc2)nc2ccccc2c1=O,13.8%
11,Cc1ccc(NC(=O)Cn2c(=O)n(Cc3nc(C)no3)c(=O)c3cc4c(cc32)OCO4)c(Cl)c1,10.3%
12,Cc1cccc(C)c1NC(=O)Cn1c(=O)n(Cc2ccco2)c(=O)c2ccc(C(=O)NC3CCCC3)cc21,4.98%
13,CC1Cc2cc(S(=O)(=O)CCC(=O)Nc3ccc(F)c(Cl)c3)ccc2N1C(=O)C1CC1 (centres undefined),-6.73%
14,O=C(CCn1c(=O)c2sccc2n(Cc2cccc(F)c2)c1=O)NCc1ccc2c(c1)OCO2,4.89%
15,Cc1ccc(S(=O)(=O)c2nc(-c3ccco3)oc2SCC(=O)Nc2ccc(F)cc2)cc1,-2.89%
16,OC(CNCC1CCCCC1)COc1ccccc1 (centres undefined),active: 46.5%
17,COC(=O)c1cc(-c2ccc(OC)c(OC)c2)c2c(=O)[nH]c(=O)n(C)c2n1,0.46%
18,CCC(=O)N1CCc2cc(S(=O)(=O)NC(CC(C)C)C(=O)NCc3ccc(F)cc3)ccc21 (centres undefined),24%
19,CS(=O)(=O)c1nc(-c2ccc(Br)cc2)cc(-c2ccccc2)c1C#N,active: 41%
20,COc1ccc(-c2cn3nc(N4CCCC(C(=O)NCc5ccccc5OC)C4)sc3n2)cc1 (centres undefined),-1.24%
21,COc1ccc(N2CCC(CNC(=O)Nc3cccc(OC)c3)C2)cc1 (centres undefined),active: 56.7%
22,Cc1nn(-c2ccc3nnc(C)n3n2)c(C)c1CCC(=O)Nc1ccc(OC(F)(F)F)cc1,9.95%
